Some of the results follow.
Each compound was assayed on T1, C. trachomatis L2/434/Bu expressing GFP (CTL2-GFP). Conditions: total inclusion area; 28.5 h, 10 µM; inhibitor.
T1 construct: L2/434/Bu GFP intracellular growth in HeLa cells
Parameters: species or system HeLa; C. trachomatis total inclusion area by high-content imaging, normalised to DMSO
Outline: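 After bulk GFP and resorufin fluorescence reads, cells were fixed, stained with Hoechst and imaged by high-content microscopy. Inclusion area and number (GFP) stood in for chlamydial growth, nuclei count (Hoechst) for host cell viability. MICs were derived as for the bulk readout.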

Row | SMILES | % of control remaining
1 | c1csc(-c2ccn3c(n2)nc2ccccc23)c1 [CBK287976] | 60.0458
2 | COc1ccc(S(=O)(=O)NCCCN2CCOCC2)c(C)c1C [CBK266519] | 116.583
3 | O=S(=O)(c1ccc(C(F)(F)F)cc1)N1CCC2(CC1)OCCO2 [CBK044520] | 92.3353
4 | Cc1cc(Cl)ccc1OCCCC(=O)Nc1sc2c(c1C(N)=O)CCCCCC2 [CBK265390] | 94.0347
5 | O=[N+]([O-])c1cccc(-c2csc(N/N=C\c3cccc(O)c3)n2)c1 [CBK263418] | 97.7507
6 | CCOC(=O)c1sc(NS(=O)(=O)c2ccc(-c3ccccc3)cc2)nc1C [CBK003784] | 75.6424
7 | Cc1ccc(Nc2nc(N/N=C/c3cccc4ccccc34)nc(N3CCC(Cc4ccccc4)CC3)n2)cc1 [CBK262101] | 90.8733
8 | Cn1cncc1CN1CCCC(c2cc3cccnc3[nH]2)C1 (centres unmarked) [CBK284948] | 108.307
9 | CSCCc1[nH]c(SCC(=O)Nc2cccc3ccccc23)nc1C [CBK266097] | 122.707
10 | O=C(c1cccnc1)N1CCN(Cc2ccc([N+](=O)[O-])cc2)CC1 [CBK263026] | 93.9517
11 | COc1cc(F)cc(OC2CCNCC2)c1NC(=O)/C=C/c1cccnc1 [CBK050344T] | 82.5355
12 | O=C(Nc1ccc(-c2ccccc2)cc1)c1cccc(S(=O)(=O)NCC2CCCO2)c1 (centres unmarked) [CBK296994] | 84.8369
13 | NS(=O)(=O)c1ccc(C(=O)N2CCC3(CCN(C(=O)Cc4c[nH]c5ccccc45)C3)C2)cc1 (centres unmarked) [CBK131425] | 94.1085
14 | CN(C)c1nc(N(C)C)n(C(=O)c2cccs2)n1 [CBK019805] | 61.8161
15 | Nc1nc2n(n1)C1(CCCCC1)C1=C(CCCC1)N2 [CBK288219] | 127.485
16 | c1ccc2sc([C@H]3CCNC3)nc2c1 [CBK289389] | 108.799
17 | Cc1cc(C(=O)N2CCC(Cn3cncn3)(C3CCCCC3)CC2)n[nH]1 [CBK136786] | 108.867
18 | COc1ccc(N2CCN(c3cc(-c4ccc(CCC(=O)O)cc4)ncn3)CC2)cc1OC [CBK091030] | 93.2912
19 | COc1ccc(Sc2cccc(C(F)(F)F)n2)cc1OC [CBK093769] | 82.0549
20 | CCOC(=O)CN1CCC(Oc2nccnc2OCCN2CCOCC2)CC1 [CBK082929] | 85.1055
21 | Cc1ccc(C(=O)Nc2ccc3[nH]ccc3c2)cc1Cl [CBK159677] | 111.471
22 | CCOC(=O)CNC(=S)N[C@H]1CC[C@@]2(c3cccnc3)CCN(Cc3ccccc3)[C@H]2C1 [CBK028453] | 63.5472

Row | SMILES | % of control remaining
23 | O=C(CSc1ncnc2c1oc1ccccc12)NCc1ccccc1 [CBK287397] | 81.1793
24 | Cc1cc(C(=O)Nc2cccc(-c3nc4cc(Cl)ccc4o3)c2C)ccc1[N+](=O)[O-] [CBK262949] | 100.431
25 | c1cc(-c2cnn(-c3ccc4c(c3)CCO4)n2)cs1 [CBK112861] | 92.4949
26 | CCCc1[nH]nc(O)c1Cc1ccc(C(C)(C)C)cc1 [CBK075028] | 22.2937
27 | O=C(O)CCCC(=O)N1N=C(c2ccccc2)CC1c1ccc2nccnc2c1 (centres unmarked) [CBK286752] | 108.588
28 | Oc1ccc2[nH]c3c(c2c1)CCNC31CCN(CCOc2ccccc2)C1 (centres unmarked) [CBK081496] | 107.43
29 | COc1ccc(C(=O)Nc2nc(-c3ccc(OC)cc3)cs2)cc1 [CBK287325] | 109.696
30 | Cc1cccc(N2CCOC3(CCCC3)C2)n1 [CBK304446] | 64.783
31 | O=C(NCc1ccc(Cl)c(Cl)c1)Nc1cccc(C(=O)O)c1 [CBK155461G] | 82.2687
32 | CCN1CCN(C(=O)c2cnccn2)CC1 [CBK200373] | 113.047
33 | O=C(NCc1ccccn1)/C(=N/O)c1ccccc1 [CBK288472] | 94.7953
34 | CN(C)CCN(Cc1ccccc1)c1ccccc1 [CBK012223C] | 106.922
35 | C/C(=N\c1ccccc1C(F)(F)F)c1ccncc1 [CBK021262] | 102.655
36 | Oc1c(Br)cc(Cl)cc1/C=N/Nc1nnc2c(n1)[nH]c1ccccc12 [CBK262041] | 101.881
37 | Cc1ccc2c(O)c(C(=O)NCc3cccs3)cnc2c1 [CBK159997] | 83.7489
38 | Cc1cnc(C(=O)NC2(c3ccc(Cl)cc3)CCC2)cn1 [CBK282775] | 101.755
39 | Cc1cc(C)c(NC(=O)CSc2nc(C)c(Cc3ccccc3)c(O)n2)c([N+](=O)[O-])c1 [CBK268715] | 108.367
40 | Nc1ncc(-c2ccoc2)nc1N1CCN(CCO)CC1 [CBK063428] | 129.51
41 | CCOC(=O)C1CCN(C(=O)c2cnn3c(C)c(Cc4cccc(Cl)c4)c(C)nc23)CC1 [CBK160305] | 97.0376
42 | COc1ccc(-c2ccccc2NC(=O)c2cc(-n3cccn3)ccc2Cl)cc1 [CBK285634] | 114.715
43 | COCOc1ccc(-c2ncc(OC)nc2NC(=O)c2cc(C)oc2C)cc1 [CBK145249] | 99.154
44 | Cn1cc(N2CCCC(NC(=O)Nc3cccc(C#N)c3)C2)cn1 (centres unmarked) [CBK305179] | 57.7255

Row | SMILES | % of control remaining
45 | Cc1cc(C)cc(CNC(=O)N(CCCO)Cc2ccncc2)c1 [CBK304335] | 52.0745
46 | CN1CC[C@]2(c3ccc4c(c3)nnn4C)CC[C@@H](NC(=O)Nc3cccc(C(F)(F)F)c3F)C[C@H]12 [CBK067410] | 103.898
47 | Nc1nc(Cn2nc(-c3ccc(F)cc3)oc2=O)nc(Nc2ccc(F)cc2)n1 [CBK296742] | 116.252
48 | CCc1ccc(-c2csc(NS(=O)(=O)c3cccc(C(=O)O)c3)n2)cc1 [CBK296726] | 101.333
49 | CCOCCCNC(=O)c1cccc(S(=O)(=O)N2CCCC2)c1 [CBK305934] | 34.9638
50 | CC(C(=O)Nc1c(F)cc(F)cc1OC1CCNCC1)c1ccccc1 (centres unmarked) [CBK045896T] | 119.683
51 | CCOc1ccc(NC(=O)c2c(O)c3ccccc3n(CC)c2=O)cc1 [CBK287771] | 86.7708
52 | O=S(=O)(NC(c1ccccc1)c1ccccc1)c1ccc(Cl)cc1 [CBK261759] | 98.0249
53 | COc1ccc(Cl)cc1NC(=O)NCCN1CCCCC1 [CBK268169] | 119.703
54 | CC(C)Cc1[nH]nc(O)c1-c1ccccc1 [CBK075134] | 99.0595
55 | CC(C)[C@H](CO)Nc1nc(-c2ccc(F)c(Cl)c2)cnc1N [CBK063949] | 109.78
56 | Cc1c(-c2ccnc(N3CCOCC3)n2)cnc2nc(-c3ccncc3)nn12 [CBK288551] | 79.4631
57 | Cc1csc2c(C3CCCN(C(=O)c4ccnn4C)C3)nc(C)n12 (centres unmarked) [CBK285215] | 72.3696
58 | COc1cccc(CNc2ccc3c4c(cccc24)CC3)c1OC [CBK269688] | 95.0341
59 | COc1cc(CCc2cc(O)n3nc(C)c(-c4ccc(Cl)cc4)c3n2)on1 [CBK285681] | 78.8665
60 | CC1(C)OC(=O)CC1C(=O)N1CCCC(COc2ccccc2F)C1 (centres unmarked) [CBK282098] | 69.9169
61 | COc1cccc(NC(=O)c2ccc(-c3ccsc3)nc2NCC2CC2)c1 [CBK106227] | 81.9805
62 | O=C(CSc1nnc(-c2ccncc2)o1)c1ccccc1 [CBK070562] | 50.4208
63 | O=C(CCn1cnc2ccccc2c1=O)Nc1ccc(S(=O)(=O)N2CCCC2)cc1 [CBK267642] | 110.018
64 | O=c1cccc2n1CC1CC2CN(Cc2cccc(OCc3ccccc3)c2)C1 (centres unmarked) [CBK262426] | 93.6992
65 | COc1ccc(-c2nc3cc(C(C)C)ccc3o2)cc1NC(=O)Cc1ccc(Cl)cc1 [CBK266409] | 112.846
66 | CC(c1nc(N)nc(N(C)C)n1)N(C)CCOc1ccccc1F (centres unmarked) [CBK306053] | 31.9415

Row | SMILES | % of control remaining
67 | COc1ccc(-c2cnc(N)c(N[C@@H](C)c3ccccc3)n2)c(OC)c1OC [CBK063763] | 116.9
68 | CC1CC1C(=O)N(C)C1CCN(c2ncnc3ccccc23)CC1 (centres unmarked) [CBK304972] | 44.0254
69 | CC(=O)Oc1ccc(C(=O)Nc2ccc3c(c2)C(=O)N(CCC(=O)O)C3=O)cc1 [CBK265997] | 86.2819
70 | CC(C)(O)C#Cc1ccc(C(=O)NCCCNC(=O)c2ccc(C#CC(C)(C)O)s2)s1 [CBK267142] | 119.561
71 | COc1ccc(C)cc1S(=O)(=O)N1CCCC(C(=O)NCc2ccccn2)C1 (centres unmarked) [CBK268503] | 95.1198
72 | CC(C)c1nnc(SCc2ccc(CSc3nnc(C(C)C)n3N)cc2)n1N [CBK267911] | 99.7808
73 | Cc1cc2oc(=O)c3c(c2cc1C)CCN(C)C3 [CBK017803] | 104.375
74 | CCCc1[nH]nc(O)c1Cc1c(F)cccc1[N+](=O)[O-] [CBK075029] | 75.7993
75 | O=C1CCc2cc(S(=O)(=O)Nc3ccc(OCc4ccccc4)cc3)ccc2N1 [CBK286365] | 93.2387
76 | Cc1cc(C)cc(NC(=O)N2CCN(c3nccnc3NS(C)(=O)=O)CC2)c1 [CBK048877] | 93.8504
77 | Oc1ccc(-c2n[nH]cc2-c2cnn(-c3ccccc3)c2)c(O)c1O [CBK266948] | 96.3268
78 | COc1cc2c(cc1OC)C(CCN1CCN(c3ccccc3C)CC1)OCC(C)(C)C2 (centres unmarked) [CBK024043C] | 45.1444
79 | N#Cc1c(NC(=O)CSc2nnc(-c3ccc(Cl)cc3)o2)oc(-c2ccccc2)c1-c1ccccc1 [CBK267655] | 103.596
80 | O=C(c1c(F)cccc1F)N1CCCC2(CCN(Cc3ccccc3)C2)C1 (centres unmarked) [CBK136886] | 66.1303
81 | Cc1cc(COc2nc3ccccc3nc2NCCC(C)O)no1 (centres unmarked) [CBK173999] | 88.3228
82 | Clc1ccc(-c2c[nH]c([C@@H]3COCCN3Cc3csnn3)n2)cc1 [CBK289309] | 102.918
83 | Cc1ccc(-c2nccnc2OCCN2C(=O)c3ccccc3C2=O)c(C)c1 [CBK106981] | 89.3678
84 | CC(=O)Nc1ccc(Sc2cnccn2)cc1 [CBK085838] | 84.9353
85 | Cc1n[nH]c(C)c1CCCCCOc1ccccc1 [CBK027211C] | 83.4297
86 | O=C(c1ccncc1)N1C2CCC1CC(O)(c1ccc(F)cc1)C2 (centres unmarked) [CBK283545] | 115.998

— paper PMC12040169 (PLOS Biology, 2025)
